# Source: paper PMC12820563, “FoxP3 forms a head-to-head dimer in vivo and stabilizes its multimerization on adjacent microsatellites”
# This is one part of the list.
# Target: T1, MBP-FoxP1dN (Mus musculus, UniProt P58462 326-579)
# T1 sequence: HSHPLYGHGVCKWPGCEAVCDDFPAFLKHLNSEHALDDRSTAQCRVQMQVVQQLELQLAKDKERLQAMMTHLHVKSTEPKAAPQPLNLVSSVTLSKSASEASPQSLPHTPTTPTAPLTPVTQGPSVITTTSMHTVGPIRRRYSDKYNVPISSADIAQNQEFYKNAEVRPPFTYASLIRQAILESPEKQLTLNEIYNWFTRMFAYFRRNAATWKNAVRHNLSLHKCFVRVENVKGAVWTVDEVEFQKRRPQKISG
# Assay: PD-seq (MBP pull-down with sequencing); 20 mM Tris-HCl pH 7.5, 100 mM NaCl, 1.5 mM MgCl2, 0.4 uM protein, 0.1 uM dsDNA library, 30 min, room temperature, amylose pull-down; high values mean tight binding
# Conditions: protein: recombinant; tags: His6-MBP; chain copies: 2; dsDNA, one strand shown
# Procedure, shortened: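 Binding is the reads-per-million enrichment of pull-down relative to input, pooled across replicates. For this, 0.4 µM His6-MBP-tagged mouse FoxP3 or FoxP1 fragment lacking the N-terminus, made in E. coli, was incubated with 0.1 µM Klenow-filled double-stranded degenerate DNA library for 30 min at room temperature in Tris pH 7.5 buffer with NaCl and MgCl2. Complexes bound to amylose resin were washed three times before proteinase K released the DNA for PCR barcoding and Illumina sequencing.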
row,Sequence,binding signal
1,GATGATTGTTCTCCCAGCTGATGAATTACCAAAGTCGAGTAAACAAATTTTCCTAATCTTTCTGTTCAAGCGCCATCTAC,0.959 RPM ratio (pull-down/input)
2,GATGATTGTTCTCCCAGCTGATGAATTGTTAGGATCGAGTAAACAAATTTTCCTAATCTTTCTGTTCAAGCGCCATCTAC,1.24 RPM ratio (pull-down/input)
3,GATGATTGTTCTCCCAGCTGATGAATTTTTTGGGTCGAGTAAACAAATTTTCCTAATCTTTCTGTTCAAGCGCCATCTAC,0.836 RPM ratio (pull-down/input)
4,GATGATTGTTCTCCCAGCTGATGAATTAACGGGCTCGAGTAAACAAATTTTCCTAATCTTTCTGTTCAAGCGCCATCTAC,0.82 RPM ratio (pull-down/input)
5,GATGATTGTTCTCCCAGCTGATGAATTGTGACACTCGAGTAAACAAATTTTCCTAATCTTTCTGTTCAAGCGCCATCTAC,1.12 RPM ratio (pull-down/input)
6,GATGATTGTTCTCCCAGCTGATGAATTTTAACATTCGAGTAAACAAATTTTCCTAATCTTTCTGTTCAAGCGCCATCTAC,0.959 RPM ratio (pull-down/input)
7,GATGATTGTTCTCCCAGCTGATGAATTCCCTAAGTCGAGTAAACAAATTTTCCTAATCTTTCTGTTCAAGCGCCATCTAC,0.784 RPM ratio (pull-down/input)
8,GATGATTGTTCTCCCAGCTGATGAATTTACTTACTCGAGTAAACAAATTTTCCTAATCTTTCTGTTCAAGCGCCATCTAC,1.42 RPM ratio (pull-down/input)
9,GATGATTGTTCTCCCAGCTGATGAATTATCCCGCTCGAGTAAACAAATTTTCCTAATCTTTCTGTTCAAGCGCCATCTAC,0.866 RPM ratio (pull-down/input)
10,GATGATTGTTCTCCCAGCTGATGAATTCTTCTGTTCGAGTAAACAAATTTTCCTAATCTTTCTGTTCAAGCGCCATCTAC,0.827 RPM ratio (pull-down/input)
11,GATGATTGTTCTCCCAGCTGATGAATTTCGAGGTTCGAGTAAACAAATTTTCCTAATCTTTCTGTTCAAGCGCCATCTAC,0.815 RPM ratio (pull-down/input)
12,GATGATTGTTCTCCCAGCTGATGAATTCGAATAGTCGAGTAAACAAATTTTCCTAATCTTTCTGTTCAAGCGCCATCTAC,0.864 RPM ratio (pull-down/input)
13,GATGATTGTTCTCCCAGCTGATGAATTTGGTTTATCGAGTAAACAAATTTTCCTAATCTTTCTGTTCAAGCGCCATCTAC,1.32 RPM ratio (pull-down/input)
14,GATGATTGTTCTCCCAGCTGATGAATTTCTTTCTTCGAGTAAACAAATTTTCCTAATCTTTCTGTTCAAGCGCCATCTAC,0.908 RPM ratio (pull-down/input)
15,GATGATTGTTCTCCCAGCTGATGAATTCAATCGATCGAGTAAACAAATTTTCCTAATCTTTCTGTTCAAGCGCCATCTAC,0.929 RPM ratio (pull-down/input)
16,GATGATTGTTCTCCCAGCTGATGAATTTCCTACTTCGAGTAAACAAATTTTCCTAATCTTTCTGTTCAAGCGCCATCTAC,0.89 RPM ratio (pull-down/input)
17,GATGATTGTTCTCCCAGCTGATGAATTGAGAATTTCGAGTAAACAAATTTTCCTAATCTTTCTGTTCAAGCGCCATCTAC,0.82 RPM ratio (pull-down/input)
18,GATGATTGTTCTCCCAGCTGATGAATTTTTATACTCGAGTAAACAAATTTTCCTAATCTTTCTGTTCAAGCGCCATCTAC,1.03 RPM ratio (pull-down/input)
19,GATGATTGTTCTCCCAGCTGATGAATTTCTTTGATCGAGTAAACAAATTTTCCTAATCTTTCTGTTCAAGCGCCATCTAC,0.956 RPM ratio (pull-down/input)
20,GATGATTGTTCTCCCAGCTGATGAATTCGCGTCGTCGAGTAAACAAATTTTCCTAATCTTTCTGTTCAAGCGCCATCTAC,0.878 RPM ratio (pull-down/input)
21,GATGATTGTTCTCCCAGCTGATGAATTGGGCTGTTCGAGTAAACAAATTTTCCTAATCTTTCTGTTCAAGCGCCATCTAC,0.869 RPM ratio (pull-down/input)

row,Sequence,binding signal
1,GATGATTGTTCTCCCAGCTGATGAATTCTGCGAATCGAGTAAACAAATTTTCCTAATCTTTCTGTTCAAGCGCCATCTAC,0.931 RPM ratio (pull-down/input)
2,GATGATTGTTCTCCCAGCTGATGAATTGATATGTTCGAGTAAACAAATTTTCCTAATCTTTCTGTTCAAGCGCCATCTAC,1.27 RPM ratio (pull-down/input)
3,GATGATTGTTCTCCCAGCTGATGAATTTGATATCTCGAGTAAACAAATTTTCCTAATCTTTCTGTTCAAGCGCCATCTAC,0.967 RPM ratio (pull-down/input)
4,GATGATTGTTCTCCCAGCTGATGAATTGGCTTCTTCGAGTAAACAAATTTTCCTAATCTTTCTGTTCAAGCGCCATCTAC,0.926 RPM ratio (pull-down/input)
5,GATGATTGTTCTCCCAGCTGATGAATTACGCCTCTCGAGTAAACAAATTTTCCTAATCTTTCTGTTCAAGCGCCATCTAC,1.01 RPM ratio (pull-down/input)
6,GATGATTGTTCTCCCAGCTGATGAATTCGAGGCCTCGAGTAAACAAATTTTCCTAATCTTTCTGTTCAAGCGCCATCTAC,0.796 RPM ratio (pull-down/input)
7,GATGATTGTTCTCCCAGCTGATGAATTAGAGAGATCGAGTAAACAAATTTTCCTAATCTTTCTGTTCAAGCGCCATCTAC,0.86 RPM ratio (pull-down/input)
8,GATGATTGTTCTCCCAGCTGATGAATTACTAGCTTCGAGTAAACAAATTTTCCTAATCTTTCTGTTCAAGCGCCATCTAC,1.06 RPM ratio (pull-down/input)
9,GATGATTGTTCTCCCAGCTGATGAATTGTGTAAGTCGAGTAAACAAATTTTCCTAATCTTTCTGTTCAAGCGCCATCTAC,1.11 RPM ratio (pull-down/input)
10,GATGATTGTTCTCCCAGCTGATGAATTACTTGGTTCGAGTAAACAAATTTTCCTAATCTTTCTGTTCAAGCGCCATCTAC,0.959 RPM ratio (pull-down/input)
11,GATGATTGTTCTCCCAGCTGATGAATTTGATGTATCGAGTAAACAAATTTTCCTAATCTTTCTGTTCAAGCGCCATCTAC,1.25 RPM ratio (pull-down/input)
12,GATGATTGTTCTCCCAGCTGATGAATTGGGGATATCGAGTAAACAAATTTTCCTAATCTTTCTGTTCAAGCGCCATCTAC,0.891 RPM ratio (pull-down/input)
13,GATGATTGTTCTCCCAGCTGATGAATTTGGTTTCTCGAGTAAACAAATTTTCCTAATCTTTCTGTTCAAGCGCCATCTAC,0.962 RPM ratio (pull-down/input)
14,GATGATTGTTCTCCCAGCTGATGAATTAGATAGGTCGAGTAAACAAATTTTCCTAATCTTTCTGTTCAAGCGCCATCTAC,0.863 RPM ratio (pull-down/input)
15,GATGATTGTTCTCCCAGCTGATGAATTTACTGATTCGAGTAAACAAATTTTCCTAATCTTTCTGTTCAAGCGCCATCTAC,1.32 RPM ratio (pull-down/input)
16,GATGATTGTTCTCCCAGCTGATGAATTGGTACCCTCGAGTAAACAAATTTTCCTAATCTTTCTGTTCAAGCGCCATCTAC,0.916 RPM ratio (pull-down/input)
17,GATGATTGTTCTCCCAGCTGATGAATTCCACGCCTCGAGTAAACAAATTTTCCTAATCTTTCTGTTCAAGCGCCATCTAC,0.806 RPM ratio (pull-down/input)
18,GATGATTGTTCTCCCAGCTGATGAATTGGCCCCCTCGAGTAAACAAATTTTCCTAATCTTTCTGTTCAAGCGCCATCTAC,0.75 RPM ratio (pull-down/input)
19,GATGATTGTTCTCCCAGCTGATGAATTCGAGGCTTCGAGTAAACAAATTTTCCTAATCTTTCTGTTCAAGCGCCATCTAC,0.819 RPM ratio (pull-down/input)
20,GATGATTGTTCTCCCAGCTGATGAATTACAACAATCGAGTAAACAAATTTTCCTAATCTTTCTGTTCAAGCGCCATCTAC,2.1 RPM ratio (pull-down/input)
21,GATGATTGTTCTCCCAGCTGATGAATTAGTACCTTCGAGTAAACAAATTTTCCTAATCTTTCTGTTCAAGCGCCATCTAC,0.945 RPM ratio (pull-down/input)

row,Sequence,binding signal
1,GATGATTGTTCTCCCAGCTGATGAATTACTCTGCTCGAGTAAACAAATTTTCCTAATCTTTCTGTTCAAGCGCCATCTAC,0.985 RPM ratio (pull-down/input)
2,GATGATTGTTCTCCCAGCTGATGAATTTCGTGCATCGAGTAAACAAATTTTCCTAATCTTTCTGTTCAAGCGCCATCTAC,1.21 RPM ratio (pull-down/input)
3,GATGATTGTTCTCCCAGCTGATGAATTGGGCGTATCGAGTAAACAAATTTTCCTAATCTTTCTGTTCAAGCGCCATCTAC,0.943 RPM ratio (pull-down/input)
4,GATGATTGTTCTCCCAGCTGATGAATTCATTCCATCGAGTAAACAAATTTTCCTAATCTTTCTGTTCAAGCGCCATCTAC,0.916 RPM ratio (pull-down/input)
5,GATGATTGTTCTCCCAGCTGATGAATTAATGCTCTCGAGTAAACAAATTTTCCTAATCTTTCTGTTCAAGCGCCATCTAC,1.11 RPM ratio (pull-down/input)
6,GATGATTGTTCTCCCAGCTGATGAATTAGCCGGTTCGAGTAAACAAATTTTCCTAATCTTTCTGTTCAAGCGCCATCTAC,0.878 RPM ratio (pull-down/input)
7,GATGATTGTTCTCCCAGCTGATGAATTACAGTGTTCGAGTAAACAAATTTTCCTAATCTTTCTGTTCAAGCGCCATCTAC,1.16 RPM ratio (pull-down/input)
8,GATGATTGTTCTCCCAGCTGATGAATTTGAATGATCGAGTAAACAAATTTTCCTAATCTTTCTGTTCAAGCGCCATCTAC,0.9 RPM ratio (pull-down/input)
9,GATGATTGTTCTCCCAGCTGATGAATTGCGTTCCTCGAGTAAACAAATTTTCCTAATCTTTCTGTTCAAGCGCCATCTAC,1.03 RPM ratio (pull-down/input)
10,GATGATTGTTCTCCCAGCTGATGAATTAACACCCTCGAGTAAACAAATTTTCCTAATCTTTCTGTTCAAGCGCCATCTAC,0.976 RPM ratio (pull-down/input)
11,GATGATTGTTCTCCCAGCTGATGAATTCATTTGGTCGAGTAAACAAATTTTCCTAATCTTTCTGTTCAAGCGCCATCTAC,0.932 RPM ratio (pull-down/input)
12,GATGATTGTTCTCCCAGCTGATGAATTCGGCTCGTCGAGTAAACAAATTTTCCTAATCTTTCTGTTCAAGCGCCATCTAC,0.787 RPM ratio (pull-down/input)
13,GATGATTGTTCTCCCAGCTGATGAATTTACATGCTCGAGTAAACAAATTTTCCTAATCTTTCTGTTCAAGCGCCATCTAC,1.41 RPM ratio (pull-down/input)
14,GATGATTGTTCTCCCAGCTGATGAATTGACTGTCTCGAGTAAACAAATTTTCCTAATCTTTCTGTTCAAGCGCCATCTAC,0.876 RPM ratio (pull-down/input)
15,GATGATTGTTCTCCCAGCTGATGAATTGGCTACTTCGAGTAAACAAATTTTCCTAATCTTTCTGTTCAAGCGCCATCTAC,0.866 RPM ratio (pull-down/input)
16,GATGATTGTTCTCCCAGCTGATGAATTTCCCGAGTCGAGTAAACAAATTTTCCTAATCTTTCTGTTCAAGCGCCATCTAC,0.782 RPM ratio (pull-down/input)
17,GATGATTGTTCTCCCAGCTGATGAATTATGATCATCGAGTAAACAAATTTTCCTAATCTTTCTGTTCAAGCGCCATCTAC,1.05 RPM ratio (pull-down/input)
18,GATGATTGTTCTCCCAGCTGATGAATTGTTTTATTCGAGTAAACAAATTTTCCTAATCTTTCTGTTCAAGCGCCATCTAC,1.6 RPM ratio (pull-down/input)
19,GATGATTGTTCTCCCAGCTGATGAATTACGTAATTCGAGTAAACAAATTTTCCTAATCTTTCTGTTCAAGCGCCATCTAC,1.14 RPM ratio (pull-down/input)
20,GATGATTGTTCTCCCAGCTGATGAATTCTAGACTTCGAGTAAACAAATTTTCCTAATCTTTCTGTTCAAGCGCCATCTAC,0.771 RPM ratio (pull-down/input)
21,GATGATTGTTCTCCCAGCTGATGAATTGTTGGGGTCGAGTAAACAAATTTTCCTAATCTTTCTGTTCAAGCGCCATCTAC,1.27 RPM ratio (pull-down/input)
